{"source": "the supplement of paper PMC8728848", "assay_in_all_cases": "glycan array binding signal (z-score within array); higher = stronger binding", "settings_in_all_cases": "glycan notation: IUPAC condensed, linker removed; mutation: R74S", "key": {"[1]": {"target": "Fuc(a1-2)Gal(b1-4)GlcNAc(b1-3)Gal(b1-4)GlcNAc(b1-2)Man(a1-3)[Fuc(a1-2)Gal(b1-4)GlcNAc(b1-3)Gal(b1-4)GlcNAc(b1-2)Man(a1-6)]Man(b1-4)GlcNAc(b1-4)GlcNAc", "in_short": "(§1)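 Columns mapping to the same glycan were averaged after glycan names were converted to IUPAC-condensed notation. The data come from 3228 arrays in the Consortium for Functional Glycomics database, limited to those with an available protein sequence. Binding is reported as a within-array Z-score averaged across arrays of one protein sequence and across linkers.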"}, "[2]": {"target": "Fuc(a1-2)Gal(b1-4)GlcNAc(b1-3)Gal(b1-4)GlcNAc(b1-3)Gal(b1-4)GlcNAc", "in_short": "as §1"}, "[3]": {"target": "Fuc(a1-2)Gal(b1-4)GlcNAc(b1-3)GalNAc", "in_short": "as §1"}, "[4]": {"target": "Fuc(a1-2)Gal(b1-4)GlcNAc(b1-3)[Fuc(a1-2)Gal(b1-4)GlcNAc(b1-6)]GalNAc", "in_short": "as §1"}, "[5]": {"target": "Fuc(a1-2)Gal(b1-4)GlcNAc(b1-3)[Fuc(a1-3)[Gal(b1-4)]GlcNAc(b1-6)]Gal(b1-4)Glc", "in_short": "as §1"}, "[6]": {"target": "Fuc(a1-2)Gal(b1-4)GlcNAc(b1-6)GalNAc", "in_short": "as §1"}, "[7]": {"target": "Fuc(a1-2)Gal(b1-4)GlcNAc6S", "in_short": "as §1"}, "[8]": {"target": "Fuc(a1-2)Gal(b1-4)[Fuc(a1-3)]GlcNAc", "in_short": "as §1"}, "[9]": {"target": "Fuc(a1-2)Gal(b1-4)[Fuc(a1-3)]GlcNAc(b1-2)Man(a1-3)[Fuc(a1-2)Gal(b1-4)[Fuc(a1-3)]GlcNAc(b1-2)Man(a1-6)]Man(b1-4)GlcNAc(b1-4)[Fuc(a1-6)]GlcNAc", "in_short": "as §1"}, "[10]": {"target": "Fuc(a1-2)Gal(b1-4)[Fuc(a1-3)]GlcNAc(b1-2)[Fuc(a1-2)Gal(b1-4)[Fuc(a1-3)]GlcNAc(b1-4)]Man(a1-3)[Fuc(a1-2)Gal(b1-4)[Fuc(a1-3)]GlcNAc(b1-2)Man(a1-6)]Man(b1-4)GlcNAc(b1-4)GlcNAc", "in_short": "as §1"}, "[11]": {"target": "Fuc(a1-2)Gal(b1-4)[Fuc(a1-3)]GlcNAc(b1-3)Gal(b1-4)[Fuc(a1-3)]GlcNAc", "in_short": "as §1"}, "[12]": {"target": "Fuc(a1-2)Gal(b1-4)[Fuc(a1-3)]GlcNAc(b1-3)Gal(b1-4)[Fuc(a1-3)]GlcNAc(b1-3)Gal(b1-4)[Fuc(a1-3)]GlcNAc", "in_short": "as §1"}, "[13]": {"target": "Fuc(a1-2)Gal(b1-4)[Fuc(a1-3)]GlcNAc(b1-3)GalNAc", "in_short": "as §1"}, "[14]": {"target": "Fuc(a1-2)Gal(b1-4)[Fuc(a1-3)]GlcNAc(b1-3)[Neu5Ac(a2-6)Gal(b1-4)GlcNAc(b1-6)]Gal(b1-4)Glc", "in_short": "as §1"}, "[15]": {"target": "Fuc(a1-2)Gal3S(b1-4)GlcNAc", "in_short": "as §1"}, "[16]": {"target": "Fuc(a1-2)Gal6S(b1-3)GlcNAc", "in_short": "as §1"}, "[17]": {"target": "Fuc(a1-2)Gal6S(b1-3)GlcNAc6S", "in_short": "as §1"}, "Fuc(a1-2)Gal6S(b1-4)Glc": {"target": "Fuc(a1-2)Gal6S(b1-4)Glc", "in_short": "as §1"}, "[18]": {"target": "Fuc(a1-2)Gal6S(b1-4)Glc6S", "in_short": "as §1"}, "Fuc(a1-2)[Gal(a1-3)]Gal": {"target": "Fuc(a1-2)[Gal(a1-3)]Gal", "in_short": "as §1"}, "[19]": {"target": "Fuc(a1-2)[Gal(a1-3)]Gal(b1-3)GalNAc", "in_short": "as §1"}, "[20]": {"target": "Fuc(a1-2)[Gal(a1-3)]Gal(b1-3)GalNAc(b1-3)Gal(a1-4)Gal(b1-4)Glc", "in_short": "as §1"}, "[21]": {"target": "Fuc(a1-2)[Gal(a1-3)]Gal(b1-3)GlcNAc", "in_short": "as §1"}, "[22]": {"target": "Fuc(a1-2)[Gal(a1-3)]Gal(b1-3)GlcNAc(b1-2)Man(a1-3)[Fuc(a1-2)[Gal(a1-3)]Gal(b1-3)GlcNAc(b1-2)Man(a1-6)]Man(b1-4)GlcNAc(b1-4)GlcNAc", "in_short": "as §1"}, "[23]": {"target": "Fuc(a1-2)[Gal(a1-3)]Gal(b1-3)GlcNAc(b1-2)Man(a1-3)[Fuc(a1-2)[Gal(a1-3)]Gal(b1-3)GlcNAc(b1-2)Man(a1-6)]Man(b1-4)GlcNAc(b1-4)[Fuc(a1-6)]GlcNAc", "in_short": "as §1"}, "[24]": {"target": "Fuc(a1-2)[Gal(a1-3)]Gal(b1-3)GlcNAc(b1-3)GalNAc", "in_short": "as §1"}, "[25]": {"target": "Fuc(a1-2)[Gal(a1-3)]Gal(b1-3)GlcNAc(b1-6)GalNAc", "in_short": "as §1"}, "[26]": {"target": "Fuc(a1-2)[Gal(a1-3)]Gal(b1-4)Glc", "in_short": "as §1"}, "[27]": {"target": "Fuc(a1-2)[Gal(a1-3)]Gal(b1-4)GlcNAc", "in_short": "as §1"}, "[28]": {"target": "Fuc(a1-2)[Gal(a1-3)]Gal(b1-4)GlcNAc(b1-2)Man", "in_short": "as §1"}, "[29]": {"target": "Fuc(a1-2)[Gal(a1-3)]Gal(b1-4)GlcNAc(b1-2)Man(a1-3)[Fuc(a1-2)[Gal(a1-3)]Gal(b1-4)GlcNAc(b1-2)Man(a1-6)]Man(b1-4)GlcNAc(b1-4)GlcNAc", "in_short": "as §1"}, "[30]": {"target": "Fuc(a1-2)[Gal(a1-3)]Gal(b1-4)GlcNAc(b1-2)Man(a1-3)[Fuc(a1-2)[Gal(a1-3)]Gal(b1-4)GlcNAc(b1-2)Man(a1-6)]Man(b1-4)GlcNAc(b1-4)[Fuc(a1-6)]GlcNAc", "in_short": "as §1"}, "[31]": {"target": "Fuc(a1-2)[Gal(a1-3)]Gal(b1-4)GlcNAc(b1-3)GalNAc", "in_short": "as §1"}, "[32]": {"target": "Fuc(a1-2)[Gal(a1-3)]Gal(b1-4)GlcNAc(b1-3)[Fuc(a1-2)[Gal(a1-3)]Gal(b1-4)GlcNAc(b1-6)]GalNAc", "in_short": "as §1"}, "[33]": {"target": "Fuc(a1-2)[Gal(a1-3)]Gal(b1-4)GlcNAc(b1-6)GalNAc", "in_short": "as §1"}, "[34]": {"target": "Fuc(a1-2)[Gal(a1-3)]Gal(b1-4)[Fuc(a1-3)]Glc", "in_short": "as §1"}, "[35]": {"target": "Fuc(a1-2)[Gal(a1-3)]Gal(b1-4)[Fuc(a1-3)]GlcNAc", "in_short": "as §1"}, "[36]": {"target": "Fuc(a1-2)[Gal(a1-3)]Gal(b1-4)[Fuc(a1-3)]GlcNAc(b1-3)GalNAc", "in_short": "as §1"}, "[37]": {"target": "Fuc(a1-2)[Gal(a1-4)]Gal(b1-4)GlcNAc", "in_short": "as §1"}, "[38]": {"target": "Fuc(a1-2)[GalNAc(a1-3)]Gal", "in_short": "as §1"}, "[39]": {"target": "Fuc(a1-2)[GalNAc(a1-3)]Gal(b1-3)GalNAc(a1-3)[Fuc(a1-2)]Gal(b1-4)GlcNAc", "in_short": "as §1"}, "[40]": {"target": "Fuc(a1-2)[GalNAc(a1-3)]Gal(b1-3)GalNAc(b1-3)Gal(a1-4)Gal(b1-4)Glc", "in_short": "as §1"}, "[41]": {"target": "Fuc(a1-2)[GalNAc(a1-3)]Gal(b1-3)GlcNAc", "in_short": "as §1"}, "[42]": {"target": "Fuc(a1-2)[GalNAc(a1-3)]Gal(b1-3)GlcNAc(b1-2)Man(a1-3)[Fuc(a1-2)[GalNAc(a1-3)]Gal(b1-3)GlcNAc(b1-2)Man(a1-6)]Man(b1-4)GlcNAc(b1-4)GlcNAc", "in_short": "as §1"}, "[43]": {"target": "Fuc(a1-2)[GalNAc(a1-3)]Gal(b1-3)GlcNAc(b1-2)Man(a1-3)[Fuc(a1-2)[GalNAc(a1-3)]Gal(b1-3)GlcNAc(b1-2)Man(a1-6)]Man(b1-4)GlcNAc(b1-4)[Fuc(a1-6)]GlcNAc", "in_short": "as §1"}}, "note": "The other results are listed elsewhere or left out.", "data": [{"binder": "Gal 7 (Homo sapiens) (protein) MSNVPHKSSLPEGIRPGTVLRIRGLVPPNASRFHVNLLCGEEGGSDAALHFNPRLDTSEVVFNSKEGGSWGREESGPGVPFGRGQPFEVLIIASDDGFKAVVGDAQYHHFRHRLPLARVRLVEVGGDVQLDSVRIF", "values": [{"measurement": "glycan array binding signal (z-score)", "setting": "[1]", "result": 13.1}, {"measurement": "glycan array binding signal (z-score)", "setting": "[2]", "result": 1.15}, {"measurement": "glycan array binding signal (z-score)", "setting": "[3]", "result": -0.19}, {"measurement": "glycan array binding signal (z-score)", "setting": "[4]", "result": -0.363}, {"measurement": "glycan array binding signal (z-score)", "setting": "[5]", "result": 0.039}, {"measurement": "glycan array binding signal (z-score)", "setting": "[6]", "result": 0.439}, {"measurement": "glycan array binding signal (z-score)", "setting": "[7]", "result": -0.321}, {"measurement": "glycan array binding signal (z-score)", "setting": "[8]", "result": 0.289}, {"measurement": "glycan array binding signal (z-score)", "setting": "[9]", "result": 1.75}, {"measurement": "glycan array binding signal (z-score)", "setting": "[10]", "result": 1.12}, {"measurement": "glycan array binding signal (z-score)", "setting": "[11]", "result": -0.128}, {"measurement": "glycan array binding signal (z-score)", "setting": "[12]", "result": 0.209}, {"measurement": "glycan array binding signal (z-score)", "setting": "[13]", "result": 0.936}, {"measurement": "glycan array binding signal (z-score)", "setting": "[14]", "result": -0.354}, {"measurement": "glycan array binding signal (z-score)", "setting": "[15]", "result": -0.256}, {"measurement": "glycan array binding signal (z-score)", "setting": "[16]", "result": -0.216}, {"measurement": "glycan array binding signal (z-score)", "setting": "[17]", "result": 0.048}, {"measurement": "glycan array binding signal (z-score)", "setting": "Fuc(a1-2)Gal6S(b1-4)Glc", "result": -0.5}, {"measurement": "glycan array binding signal (z-score)", "setting": "[18]", "result": 0.38}, {"measurement": "glycan array binding signal (z-score)", "setting": "Fuc(a1-2)[Gal(a1-3)]Gal", "result": -0.22}, {"measurement": "glycan array binding signal (z-score)", "setting": "[19]", "result": -0.278}, {"measurement": "glycan array binding signal (z-score)", "setting": "[20]", "result": 0.194}, {"measurement": "glycan array binding signal (z-score)", "setting": "[21]", "result": -0.215}, {"measurement": "glycan array binding signal (z-score)", "setting": "[22]", "result": 0.275}, {"measurement": "glycan array binding signal (z-score)", "setting": "[23]", "result": -0.135}, {"measurement": "glycan array binding signal (z-score)", "setting": "[24]", "result": -0.42}, {"measurement": "glycan array binding signal (z-score)", "setting": "[25]", "result": -0.325}, {"measurement": "glycan array binding signal (z-score)", "setting": "[26]", "result": -0.191}, {"measurement": "glycan array binding signal (z-score)", "setting": "[27]", "result": -0.56}, {"measurement": "glycan array binding signal (z-score)", "setting": "[28]", "result": -0.414}, {"measurement": "glycan array binding signal (z-score)", "setting": "[29]", "result": -0.33}, {"measurement": "glycan array binding signal (z-score)", "setting": "[30]", "result": -0.124}, {"measurement": "glycan array binding signal (z-score)", "setting": "[31]", "result": -0.532}, {"measurement": "glycan array binding signal (z-score)", "setting": "[32]", "result": -0.371}, {"measurement": "glycan array binding signal (z-score)", "setting": "[33]", "result": -0.105}, {"measurement": "glycan array binding signal (z-score)", "setting": "[34]", "result": -0.349}, {"measurement": "glycan array binding signal (z-score)", "setting": "[35]", "result": 0.045}, {"measurement": "glycan array binding signal (z-score)", "setting": "[36]", "result": -0.461}, {"measurement": "glycan array binding signal (z-score)", "setting": "[37]", "result": -0.289}, {"measurement": "glycan array binding signal (z-score)", "setting": "[38]", "result": -0.388}, {"measurement": "glycan array binding signal (z-score)", "setting": "[39]", "result": -0.542}, {"measurement": "glycan array binding signal (z-score)", "setting": "[40]", "result": -0.104}, {"measurement": "glycan array binding signal (z-score)", "setting": "[41]", "result": -0.01}, {"measurement": "glycan array binding signal (z-score)", "setting": "[42]", "result": -0.27}, {"measurement": "glycan array binding signal (z-score)", "setting": "[43]", "result": -0.352}]}]}
